Assay results published in the supplement of paper PMC11417369.
± gives the standard deviation of the averaged measurements. The list shows a part of the results.

Tested on: PfAP2-EXP AP2 domain (GST-tagged)
Experiment: gcPBM binding intensity (ln(normalized median fluorescence intensity)); higher = stronger DNA binding
How it was run: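 Using an Agilent 4 × 180k array, primer-extended double-stranded 36-bp intergenic genomic probes and negative controls were exposed for 1 h to GST-fused P. falciparum DNA-binding domains expressed in E. coli. Binding was carried out in 1× PBS with 1% milk, 0.2 mg/ml BSA, 0.5% salmon testes DNA and 0.03% Triton X-100, and protein was detected with Alexa488 anti-GST antibody and a 488 nm scan. Binding intensity is the highest Masliner-normalised natural-log median intensity across replicate spots of either probe orientation.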

| Sequence | gcPBM binding intensity (ln) |
| --- | --- |
| ACTTTTTGAATGTTTGCACACAAATCTCATAATTTT [CACACA_site358] | 8.79 ± 0.42 |
| TTTTTCTTTGAATAAATACACACGAGAAATGAAAGT [CACACA_site1688] | 8.99 ± 0.34 |
| AAAAGGAGCAAATACAAAAAAATGAACAAAAAAAAA [CACACA_negctrl_site716] | 8.78 ± 0.49 |
| TTTTGTAATGCTTTTTTTTTTTTTTTTTTTTTTTTT [CACACA_negctrl_site932] | 9.15 ± 0.13 |
| CATACCTATAGACACACACACACACGCACGCACAAA [CACACA_site6374] | 8.69 ± 0.42 |
| ACCATATATTAAAAAGTGCATTAAATATATAAATAT [GTGCAC_site9443] | 8.93 ± 0.38 |
| AATAGAAATTATATAAACATAAATGAATAAATAAAT [CACACA_negctrl_site1817] | 8.53 ± 0.4 |
| AGTATTATTTACTGCGCATGCTATTTATATATATTA [TGCATGCA_site876] | 9.01 ± 0.44 |
| AATTAAATGGATAAATGTACATATGTGAATATATTT [XGTACX_site84] | 8.87 ± 0.26 |
| AATTATCAGGAATGATGTACTGAAATAAAAAAAAAA [XGTACX_site3280] | 8.6 ± 0.47 |
| CTACATATGTATAATATGCACACGTCATTTTCCCCT [CACACA_site2107] | 8.88 ± 0.23 |
| ATTTTATTTAAATACACACACATATATATATTATAT [CACACA_site4607] | 8.75 ± 0.37 |
| CACAGACACCCATACACACACATACCCATATATATA [CACACA_site5023] | 8.79 ± 0.32 |
| ACACAAAAATGAAAAATGAAAAGGGTAATATATATA [CACACA_negctrl_site1490] | 9.06 ± 0.17 |
| AAAAAAAAAAAAAAAGCACACATCATATTTTAATTC [CACACA_site9109] | 8.46 ± 0.39 |
| ATACTGTATAGTCGCACACAAAAATATAAAATATTT [CACACA_site6004] | 8.4 ± 0.45 |
| AAAATTTGAAAAAGGGGTACTTAATAAAAGTTTCAT [XGTACX_site932] | 8.4 ± 0.31 |
| TTACACAAGGATAAAAACATATGTATGATTATATAT [CACACA_negctrl_site654] | 8.61 ± 0.54 |
| TATATCAAAAACGAGACATGCATGCCGTTCATTTTG [TGCATGCA_site211] | 8.95 ± 0.28 |
| GAGTTTATATTTTAAGCATGCATATGTTATTATTAT [TGCATGCA_site1049] | 9.17 ± 0.45 |
| AAAAAAACAGAAAACACACAAATTATCTTATAATTA [CACACA_site6282] | 8.3 ± 0.46 |
| TATATAAGAATATATACACACATATCTGTATTTATA [CACACA_site5231] | 8.15 ± 0.35 |

| Sequence | gcPBM binding intensity (ln) |
| --- | --- |
| TTATTAACGGAACTCTGTACTTAAAAAATTTTAGAA [XGTACX_site8787] | 8.3 ± 0.26 |
| ATTGTTTCATTAAAATGTACATAAATTGTGTATAAT [XGTACX_site5341] | 8.55 ± 0.28 |
| AATAAAATAAAAAAAAATAAAAAAAAAATAAAAAAT [XGTACX_negctrl_site245] | 8.38 ± 0.45 |
| TATATATATATTTAATGTACATGTTTATTTTATCAT [XGTACX_site499] | 9.5 ± 0.11 |
| TTTATAAAGGGAAAGGTGCAAAAGGTGAAAGTTTTA | 9.29 ± 0.24 |
| TATTTTTCTTTTTAAGTGCATGGTTGTATAAAATTT [GTGCAC_site9480] | 8.73 ± 0.44 |
| TCTTTTTTGAAGCATTTTGTTTTTTAATAAGTAAAA [TGCATGCA_negctrl_site247] | 8.31 ± 0.42 |
| ATATAATGAAGTGAATGTACATATAAAATGTAAAAA [XGTACX_site8052] | 8.73 ± 0.24 |
| TCAAATTTAATCATAACACACATTCACATATGAATT [CACACA_site3199] | 8.19 ± 0.56 |
| ATATAACATTGTTTTGCATGTAAATATTCAATTTTT [TGCATGCA_site758] | 8.96 ± 0.15 |
| TCAAAATATCCAAAAGAATAAAGAAAAAAAAAAAGA [CACACA_negctrl_site1377] | 8.41 ± 0.43 |
| TTTTTATAAATAATAAGGCGTATGAAAATAAAATAA [TGCATGCA_negctrl_site421] | 8.72 ± 0.26 |
| AAACTGAAAAAAATATGTACATATTTATATCTTATA [XGTACX_site3011] | 8.44 ± 0.29 |
| TAAAGCAACTGAAACACACAAATTTTTTTTTTTTTT [CACACA_site7499] | 8.29 ± 0.13 |
| ATTGTATAAAAATGTACATGCAATAAATTTAGTTCT [TGCATGCA_site675] | 8.92 ± 0.23 |
| TAGTATAATATATATTGTACGTTTTAATTGTTTATA [XGTACX_site2731] | 8.25 ± 0.35 |
| GAAACGTTTTTTCAGTGTACATTTTACCGATTTGTA [XGTACX_site8249] | 8.89 ± 0.5 |
| AAAAAAAAAAAACACACACACAAATACAAATACATA [CACACA_site415] | 8.68 ± 0.49 |
| TTGAGCCTACAAAAGGGTACACATTCAATTTATTTT [XGTACX_site6570] | 8.39 ± 0.4 |
| ATATTTTGTTATGAAACACACACATATATATATATA [CACACA_site9216] | 10.1 ± 0.16 |
| AAAAAAAAAAGAAATTGTACTTTTTGTTTAATAATT [XGTACX_site4681] | 8.26 ± 0.48 |
| ATTATATACAAATAAAGTACATAAACAAATTCAGAA [XGTACX_site1187] | 8.7 ± 0.31 |

| Sequence | gcPBM binding intensity (ln) |
| --- | --- |
| TATTTCAAACTGTTCTCACACACGAAATTAGAAATG [CACACA_site611] | 8.42 ± 0.42 |
| ATAAAATGATGTATCTGTGTATGTTTATTTTGTTTT [XGTACX_negctrl_site367] | 8.4 ± 0.26 |
| ATTCCAGAAATATATTAACAAGGAAAATATAAAAAT [CACACA_negctrl_site343] | 8.63 ± 0.5 |
| TTTTGAATATGGATCTTATATATATTAAATAAATAA [CACACA_negctrl_site344] | 7.95 ± 0.48 |
| ATATATATTATATATGCATGCCAAATCTTTATAAAC [TGCATGCA_site1042] | 9.14 ± 0.52 |
| ACATATATATATATATATATATATATATATAGATAG [CACACA_negctrl_site783] | 9.055 ± 0.064 |
| ATAAAGAAATTACACACATGCAATGAAAAAAAAAAA [TGCATGCA_site406] | 8.88 ± 0.35 |
| AAAACTAAATGTTATTCGCACACGGAATTTATTTAA [CACACA_site9221] | 8.35 ± 0.42 |
| ACAAAAAAATATTTATGTACTTATTATATTTATAAT [XGTACX_site2059] | 8.15 ± 0.3 |
| CTTTTTACTTAATACACACACACACTAAAAAAAAAA [CACACA_site6574] | 8.65 ± 0.51 |
| TACTAAGAAGTATTTACACACCAACAAGGCGAAAAA [CACACA_site2944] | 8.56 ± 0.44 |
| ATATGTATAAAAATCCGTACATAAGTGTGCGTATAT [XGTACX_site4376] | 8.57 ± 0.092 |
| ATGTTTGAGCCTAAGGTGCATATAAAAATATATGTG [GTGCAC_site9690] | 8.81 ± 0.042 |
| ATAAATAATATGTAAACACACAAAAAATAAAAATGA [CACACA_site1178] | 8.7 ± 0.45 |
| TATGGGTATGTATTCACACATAACAAAAATATCAAA [CACACA_site5059] | 8.72 ± 0.42 |
| ATATATATATATAACACACGCAAAAAAATTAAATAA [CACACA_site1400] | 9.96 ± 0.11 |
| CAAAGACACAAACACACACACACATACATACATACA [CACACA_site453] | 9.29 ± 0.29 |
| TTTTATATATTCAATTGTACATGTATTTTTTTTTTT [XGTACX_site3584] | 8.72 ± 0.47 |
| ATAAATTTACTTGATTGTACATTTCTTAGTTGTATT [XGTACX_site3057] | 8.54 ± 0.33 |
| CACAAGAAAGTTCACACACACACATATATATATATA [CACACA_site6009] | 10.2 ± 0.18 |
| TATACTGATAAAAAAAGTACTAGAGTTTGTAAAAAT [XGTACX_site3934] | 8.7 ± 0.43 |
| AATTTTAATTTTTTGACACACATATAATATATATAT [CACACA_site3978] | 9.155 ± 0.049 |

| Sequence | gcPBM binding intensity (ln) |
| --- | --- |
| TTATATGTCAATTTGCGTACATACATAATTACATAT [XGTACX_site1546] | 8.735 ± 0.021 |
| ATAAGGTTACAACAAACACACAAAGGAATATACGCA [CACACA_site4090] | 9.06 ± 0.47 |
| AAGAAGAATAGGCGTTGTACGGAATGTAGTAGAGTT [XGTACX_site2430] | 9.28 ± 0.45 |
| TTAATATAAATATGATTTTTGATTCCTATACTATTT [CACACA_negctrl_site752] | 8.15 ± 0.3 |
| TTGTATTCATATGGTTGTACATATTAAAAGTTCTAA [XGTACX_site7255] | 8.49 ± 0.3 |
| TTTATTTATAGAATTACACACATATATACACAAATG [CACACA_site7338] | 8.6 ± 0.39 |
| TTTATTTTTAAAGGCACACACATTTTTATTTTTAAA [CACACA_site2021] | 8.42 ± 0.21 |
| TTCTTTTTTTTCAGTTGTACTTATAAGAAAGAAAAA [XGTACX_site4028] | 8.36 ± 0.47 |
| AATATAAATATAGGAAATGTAGTTAAAAGGTGTATG [CACACA_negctrl_site1233] | 8.79 ± 0.54 |
| TTATTATAAATAGGTAGTACATTTTGAACAAATATT [XGTACX_site8866] | 8.465 ± 0.064 |
| ATATATATAACAAAAGTGCATTAAGGGGATGCTATA | 8.91 ± 0.15 |
| AATTATGGGGAAAAGACACACATATATATATATATA [CACACA_site2589] | 10.3 ± 0.31 |
| TATGCAAGGAACCACACACACACACGGAAATGTATA [CACACA_site6490] | 8.7 ± 0.6 |
| ATACGACAAATATAAAGTACAAGCTTGGTTTTTATA [XGTACX_site8103] | 8.6 ± 0.56 |
| TTATATATATATGTATGTACTTATAACTTTTATTAG [XGTACX_site3190] | 8.41 ± 0.37 |
| ATTCTATAGAAACACACACACATGCATGCACCTATA [CACACA_site107] | 9.95 ± 0.17 |
| AAAAAGAAGATGCAAACATGCACACAGAAAAAAAAA [TGCATGCA_site375] | 8.81 ± 0.4 |
| TTTTCATTCCACAACGCACACCCATTTAAAAAAAAA [CACACA_site1377] | 8.78 ± 0.3 |
| TAATTTTTTTTTTTTTTTTTTTTTTTTTTTTTTTTA [CACACA_negctrl_site1218] | 7.63 ± 0.56 |
| TTTTTTTTTTGAATATGTACTTAAAAAAATTTTTTT [XGTACX_site3851] | 8.48 ± 0.45 |
| CTATTATAAAAATGATGTACACTTATATATACATAT [XGTACX_site6087] | 8.51 ± 0.4 |
| AAAAAAAAAAAAATTACACACATACAGATAATAATA [CACACA_site5244] | 8.54 ± 0.54 |
